Whole data set: some 1,100 sequences, median “thermal melting temperature (Tm) of peptide-HLA complex” near 58, cut for the lowest 2% near 42. Some of the results follow.
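Further: cell lysates heated 10 min at 37–73 °C, remaining pHLA pulled down with pan-class I antibody, peptides quantified by DIA-MS versus 37 °C, Tm where half the complex is lost.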

This assay concerns the target HLA-A*02:01. Description: thermal melting temperature (Tm) of peptide-HLA complex; higher = more thermostable pHLA complex. The settings on record: C1R-A*02:01.
On to GLWPGAGTIRL, for which the thermal melting temperature amounted to 61.1 °C.

TTFPRPVTV registered a thermal melting temperature of 55.4 °C.

As for FLPETRIMTSV, the thermal melting temperature is 58.4 °C.

KIGSIIFQV displayed a thermal melting temperature of 56.8 °C.

RLTPKLMEV registered a thermal melting temperature of 56.6 °C.

For the sequence FIIEKQPPQV, the thermal melting temperature is 57.7 °C.

The sequence VLQGKLAEV yielded a thermal melting temperature of 53.5 °C.

In turn, ALNSKNPQL gave a thermal melting temperature of 59.8 °C.

Sequence TLAETLVNL yielded a thermal melting temperature of 55.3 °C.

For ALASHILTA, the thermal melting temperature stood at 57.8 °C.

With RLDIIETNV, the thermal melting temperature stood at 61.2 °C.

Take RLLGYQGIAV: the thermal melting temperature was determined as 60.2 °C.

On to FLDPNNIPKA, for which the thermal melting temperature turned out to be 61.3 °C.

YLDQGTQIFL showed a thermal melting temperature of 55.5 °C.

VLTGLSIRL showed a thermal melting temperature of 57.1 °C.

Turning to SIFKAWAV, the thermal melting temperature was found to be 55.8 °C.

FLEPVNPRL had a thermal melting temperature of 55.3 °C.

For KLDFANNVQL, the thermal melting temperature amounted to 50.3 °C.

As to TLADTAVAAQV, the thermal melting temperature was determined as 60.7 °C.

Take ALLDVTPKAV: the thermal melting temperature is 60.6 °C.

For SLADVHIEV, the thermal melting temperature was 63.1 °C.

For the sequence VLGELVPRL, the thermal melting temperature turned out to be 55.6 °C.

As to YLKDLIEEV, the thermal melting temperature was 62.8 °C.

Take YLDFTNPKV: the thermal melting temperature is 62.7 °C.

For the sequence FLDHIIASV, the thermal melting temperature turned out to be 61.4 °C.

Sequence SLNTGIITV displayed a thermal melting temperature of 55.1 °C.

Take NQMPTQPQV: the thermal melting temperature is 52.2 °C.

KMLEIDPQKV displayed a thermal melting temperature of 56.1 °C.

As for LLEKQQIYL, the thermal melting temperature was 42.4 °C.

The sequence ALLAELEKI showed a thermal melting temperature of 62.1 °C.

With VLMTQQPRPVL, the thermal melting temperature worked out at 48.8 °C.

VLAHTILGV registered a thermal melting temperature of 60.9 °C.

Sequence TLQDIVYKL gave a thermal melting temperature of 56.6 °C.

Regarding VQIEEVRQV, the thermal melting temperature was found to be 55.2 °C.

Take SLPDIKVYL: the thermal melting temperature turned out to be 59.9 °C.

Sequence GLIDVKPLGV yielded a thermal melting temperature of 60.7 °C.

The sequence SMLEDVQRA returned a thermal melting temperature of 54.8 °C.

In the case of FLYSDEVQI, the thermal melting temperature is 54.1 °C.

As for VLDSVDVRL, the thermal melting temperature came out at 52.9 °C.

Sequence ILAQEIVKA had a thermal melting temperature of 55.1 °C.

Consider LLLPFKIIEA, for which the thermal melting temperature is 55.8 °C.

In the case of RLINQVLEL, the thermal melting temperature stood at 57.2 °C.

As for FLWPKEVEL, the thermal melting temperature is 64.6 °C.

As to FLQEKSPAV, the thermal melting temperature is 60.7 °C.

The sequence GLHNVVYGI displayed a thermal melting temperature of 60.8 °C.

As to RLYHITDQV, the thermal melting temperature turned out to be 56.9 °C.

Sequence VIWGKVTRA had a thermal melting temperature of 54.3 °C.

Consider KIIEYSVYL, for which the thermal melting temperature was determined as 59.5 °C.

The sequence KIGDFGLATV came in with a thermal melting temperature of 59.3 °C.

In turn, GLADASLLKKV showed a thermal melting temperature of 62.5 °C.

In turn, ALYVAVVNV had a thermal melting temperature of 57.4 °C.

For QLEEEGITFV, the thermal melting temperature was determined as 46.1 °C.

Take FLSDGTIISV: the thermal melting temperature was determined as 57.5 °C.

With GLLDLPFRV, the thermal melting temperature was found to be 61.4 °C.

Sequence LLSESNERL came in with a thermal melting temperature of 54.3 °C.

ALESFLKQV returned a thermal melting temperature of 58.9 °C.

The values are drawn from the supplement of paper PMC7726561.
